# Assay results as given in PubChem BioAssay AID485297 (National Center for Advancing Translational Sciences (NCATS), 2010).
# In all, about 320,000 compounds went through this assay and about 9,100 (2.8%) were called active. The shares of active, inactive and inconclusive entries below differ from those in the screen. The call rests on the fitted dose curve; in most records, active means well fitted activation curve with a large enough effect; inconclusive means small, poorly fitted or top-dose-only effect; inactive means no such curve, though single readings can be large or run the other way. No potency is given beside an inconclusive call; the fits are too rough.
# Experiment: qHTS Assay for Rab9 Promoter Activators; further: nearly all actives have a fitted effect of over 60% in size; on activation, negative = inhibition: % of control where 0% means no effect
# Conditions: Huh7 Rab9 promoter-luciferase reporter, luminescence, 24 h; series mostly up to 9.22 µM; activation, negative = inhibition: at the top concentration
# Outline: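 Huh7 reporter line, Rab9 promoter upstream of luciferase. Compound exposure 24 h at 37 °C in reduced-serum medium with 10% FBS. Read-out: luminescence.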
# Potency means the concentration at half of the fitted maximal effect; tags describe the fitted curve by direction and shape.
Structure (SMILES),Potency,"activation, negative = inhibition"
CCN(CC)S(=O)(=O)c1ccc(C)c(C(=O)Oc2cccc(-c3cnc4ccccc4n3)c2)c1,"inconclusive [activator, single point]",–
O=C(CNc1cccc(S(=O)(=O)N2CCCC2)c1)Nc1ccc(F)cc1F,–,inactive: -0.012%
Cn1c(SCC(=O)c2ccccc2)nnc1-c1cccnc1,"inconclusive [activator, single point]",–
Cc1ccc(NC(=O)c2ccc(=O)[nH]n2)cc1C,"inconclusive [activator, partial curve]",–
Cc1ccc2nc(NC(=O)c3ccccc3F)sc2c1,"inconclusive [activator, full curve]",–
CC(C)C(=O)Nc1ccc(C(=O)c2ccccc2)cc1,"inconclusive [activator, single point]",–
COc1ccc(/C=C2\CCn3c2nc2ccccc2c3=O)cc1OC,active: 2.51 µM,–
Cc1ccc(/C=C2\SC(N3CCCCC3)=NC2=O)cc1,"inconclusive [activator, partial curve]",–
CCOc1ncccc1-c1nc(-c2cccs2)no1,–,inactive: 2.93%
CC(=O)Oc1ccc2nc(-c3cccs3)oc(=O)c2c1,–,inactive: -3.48%
O=C(COc1ccccc1)OCC(=O)c1c[nH]c2ccccc12,–,inactive: 8.19%
CC(C)c1c(C(=O)N/N=C/c2ccccc2OCc2c(F)cccc2Cl)nnn1-c1nonc1N,–,inactive: -0.169%
O=C(c1ccc(-c2nnc(-c3ccccc3)o2)cc1)N1CCCCCC1,active: 0.562 µM,–
C/C(=N\Nc1ncc(Cl)cc1Cl)c1ccc(S(=O)(=O)NCc2ccco2)cc1,"inconclusive [activator, single point]",–
C(=N\Nc1nc2ccccc2[nH]1)/c1ccncc1,"inconclusive [activator, partial curve]",–
S=C(NCC1CCCO1)N1CCN(c2nc(-c3ccccc3)cs2)CC1 (stereo not given),–,inactive: -26.2%
Cc1cccc(NC(=O)c2ccc(NCCO)c([N+](=O)[O-])c2)n1,"inconclusive [activator, partial curve]",–
O=C(Nc1cccc(Cl)c1)c1ccccc1,"inconclusive [activator, partial curve]",–
Cc1cc(N/N=C/c2ccncc2)nc2ccccc12,active: 2.82 µM,–
C/C(=C\C(=O)c1ccccc1)Nc1cccc(O)c1,"inconclusive [activator, single point]",–
COc1ccc(C(C#N)N2N=C(C)CC2c2ccccc2)cc1 (stereo not given),–,inactive: 0.656%
O=C(C1CCN(S(=O)(=O)c2ccccc2)CC1)N1CCCCCC1,–,inactive: -1.83%
COc1ccc(Nc2nc(N)nc(SCc3nnc(C)s3)n2)cc1,"inconclusive [activator, partial curve]",–
Oc1cccc(/C=N/Nc2cccc3cccnc23)c1,"inconclusive [activator, single point]",–
CCOC(=O)C(=O)N(Nc1ccc(C)cc1)c1ccc(C)cc1,"inconclusive [activator, partial curve]",–
C/C(=N\NC(=O)c1cccc(O)c1)c1ccc(NC(=O)Cc2ccccc2)cc1,"inconclusive [activator, single point]",–
COc1ccc(COC(=O)c2n[nH]c3ccccc23)cc1F,"inconclusive [activator, partial curve]",–

Structure (SMILES),Potency,"activation, negative = inhibition"
Nc1ccc(Nc2nc(-c3cc4ccccc4oc3=O)cs2)cc1,"inconclusive [activator, single point]",–
CC(C)c1ccc(OCc2ccc(C(=O)N(C)C)o2)cc1,active: 1.58 µM,–
O=C(CSc1cnc2ccccc2n1)c1ccc(F)cc1,active: 3.16 µM,–
COc1ccc(CCCC(=O)Nc2ccccc2F)cc1,"inconclusive [activator, partial curve, poor fit]",–
COc1ccc(C2CC(=O)N(C)c3ccccc3S2)cc1OC (stereo not given),active: 3.98 µM,–
O=C(C1CC(c2ccccc2O)=NO1)N1CCCCC1 (stereo not given),active: 4.47 µM,–
CCC(CC)c1nnc(NC(=O)C2COc3ccccc3O2)s1 (stereo not given),active: 1.26 µM,–
COc1cccc(C(=O)NCc2ccc(-c3nc4ccccc4s3)cc2)c1,"inconclusive [activator, single point]",–
COc1ccc(NC(=O)CCC2COc3ccccc3O2)c(OC)c1 (stereo not given),–,inactive: 2.71%
COc1ccccc1-c1ccc(SCc2ccc(F)cc2)nn1,–,inactive: 24.1%
O=C(Nc1ccc(N2CCOCC2)nc1)c1cccs1,active: 2.51 µM,–
Cc1ccsc1/C=N/NC(=O)c1sccc1C,active: 3.16 µM,–
Cc1cnc(C(=O)OC(C)C(=O)NCc2ccccc2)cn1 (stereo not given),–,inactive: -3.49%
COc1ccc(-n2c(C)cc(/C=C3\SC(=S)NC3=O)c2C)cc1,"inconclusive [activator, partial curve]",–
Cn1c(C(=O)NCc2cccs2)cc2oc3ccccc3c21,"inconclusive [activator, single point]",–
CN(C(=O)COc1ncnc2c1cnn2-c1ccccc1)C1CCCCC1,–,inactive: -10.6%
COc1ccc(Cl)cc1NC(=O)c1cc(-c2ccccc2O)n[nH]1,–,inactive: -2.11%
O=c1[nH]c(COc2ccc(Cl)cc2Br)nc2ccccc12,active: 2.82 µM,–
N#Cc1cc2c(nc1SCC1COc3ccccc3O1)CCC2 (stereo not given),"inconclusive [activator, single point]",–
COc1cc(NC(=O)C(C)C)ccc1NC(=O)c1ccco1,active: 1.12 µM,–
O=C1c2ccccc2C(=O)C1(CO)c1ccccc1,"inconclusive [activator, partial curve]",–
CCOc1ccc(C(=O)Cc2cc(OC)c(OC)cc2[N+](=O)[O-])cc1,"inconclusive [activator, single point]",–
Cc1cccc(-c2nnc(SCC(=O)N3CCCC3)o2)c1,active: 3.98 µM,–
COc1ccc(-n2nc([N+](=O)[O-])c(=NCc3ccc4c(c3)OCO4)n2O)cc1,"inconclusive [activator, partial curve]",–
Cc1ccc(NC(=O)c2cc(-c3ccccc3O)n[nH]2)cc1C,active: 2.82 µM,–
CC(=O)c1cccc(NC(=O)C(C)OC(=O)c2cccc(-n3cnnn3)c2)c1 (stereo not given),–,inactive: -6.2%
O=C(CCCc1ccccc1)NCc1ccccc1,–,inactive: 15.9%

Structure (SMILES),Potency,"activation, negative = inhibition"
O=C(/C=C/c1ccccc1)Nc1ccc2c(c1)OCCO2,active: 0.447 µM,–
CCc1nonc1NC(=O)c1oc2ccc(F)cc2c1C,"inconclusive [activator, partial curve]",–
Cc1ccc(NC(=S)NC(=O)C2CC2)c(C)c1,"inconclusive [activator, partial curve]",–
O=C(Nc1cc(Br)ccc1O)c1cc(-c2ccccc2)on1,–,inactive: 25.3%
CCOc1cccc(C(=O)NC2CCCCC2)c1,"inconclusive [activator, partial curve]",–
FC(F)(F)c1nnc2ccc(NCn3nnc4ccccc43)nn12,"inconclusive [activator, single point]",–
Cc1ccc2[nH]c(C(=O)Nc3ccc(F)cc3)cc2c1,"inconclusive [activator, partial curve]",–
O=C1c2ccccc2C(=O)N1CCc1c[nH]c2ccccc12,active: 3.55 µM,–
CC(C)NC(=O)C1(S(=O)(=O)c2ccccc2)CC=CC1,–,inactive: -3.88%
O=C(CSc1n[nH]c(=O)n1-c1cccnc1)Nc1ccccc1,"inconclusive [activator, single point]",–
CCCOC(=O)c1ccc(NC(=O)C2C3CCC(C3)C2C(=O)O)cc1 (stereo not given),"inconclusive [activator, partial curve]",–
CCCOc1ccc(N/C=C/C(=O)c2ccc(OC)c(OC)c2)cc1,–,inactive: 0.124%
COCCN=c1scc(-c2ccco2)n1/N=C/c1ccc(O)c(O)c1O,–,inactive: -5.27%
COc1ccc(C2CC2C(=O)c2ccccn2)cc1 (stereo not given),"inconclusive [activator, partial curve]",–
Fc1cccc(Cl)c1/C=C/c1cnc2ccccc2n1,active: 3.98 µM,–
CC(=O)Nc1ccc(/C=N/OCC(=O)Nc2ccc(C)cc2)cc1,"inconclusive [activator, partial curve]",–
Cc1ccc(NC(=O)CCCC2CCCCC2)c(O)c1,"inconclusive [activator, partial curve]",–
CCOc1cccc(/C=C/c2ccc3ccccc3n2)c1OC(C)=O,"inconclusive [activator, single point]",–
COc1ccc(/C=N/c2c(-c3ccco3)nc3ccccn23)cc1OC,"inconclusive [activator, partial curve]",–
O=C(OCC(=O)N1CCCCCC1)c1cccc(Cl)c1,"inconclusive [activator, partial curve]",–
COc1ccc(C(=O)NCCS(=O)(=O)NCCc2ccccc2)cc1,"inconclusive [activator, partial curve]",–
COc1cccc(/C=C/C(=O)Nc2ccc(N3CCOCC3)cc2)c1OC,"inconclusive [activator, single point]",–
O=C(Cn1nc(C(=O)O)c2ccccc2c1=O)Nc1ccccc1C(F)(F)F,–,inactive: 0.702%
N=c1c(C(=O)NCCN2CCOCC2)cc2c(=O)n3ccccc3nc2n1CCc1ccccc1,–,inactive: -0.664%
CCCc1nc2oc3ccccc3c(=O)c2c(=O)n1-c1ccc(C)cc1,"inconclusive [activator, single point]",–
CCCCc1noc2c1/C(=N\O)CC(c1ccccc1)C2 (stereo not given),"inconclusive [activator, partial curve]",–
